Assay results taken from the RNAGym collection of RNA variant scans (doi:10.7554/elife.90254).
The source gives no read counts; variants with many changes may rest on few reads.

B1: LINE1-mini (parent)
chain: GGCAGAGCUCAACACAGCGUGGCAAAGUGGCUGUGGCUAGACUGCC

Variants of: B1
Assay: self-cleavage, relative activity (ratio to wild type); higher = more cleavage; in vitro, sequencing; the parent is a self-cleaving ribozyme

Variant | self-cleavage
C3A C13G G22U A26C | 1.11
C3A C10G A14G G27A | 0.05
C3A C10A A14C C18A | 1.68
C3A G5A C8U C13A A24G G44U C45U | 0.35
C3A C8U G40U C45U | 0.37
C3A C15A A26C C31A | 0.32
C3A C8A A16G U20G | 0.33
C3A A26C A39G | 0.33
C3A C31A A39G | 0.1
C3A G5C A24C U32A U38C | 0.52
C3A G5A C8U G40A U43G | 0.71
C3A C13A G22A C37U A39G | 0.04
C3A C15A G17U G27U | 1.33
C3A C10U U38A | 0.09
C3A C8A U34A | 0.35
C3A C8G U9A A24U U38G G44U | 0.13
C3A G5C G21A G35C | 0.1
C3A C23U G33U G35U C42A C46U | 0.11
C3A G5C A14C | 0.05
C3A C10G A14G C18G G22A | 0.02
C3A C8A G19C | 0.25

Variant | self-cleavage
C3A G5A A11U C37A | 0.03
C3A A39G G40U | 0.86
C3A A26C U28G G44U | 1.05
C3A C23A A24C G29A | 0.3
C3A C13A A14U C23U | 0.45
C3A G5C A14U U20C | 0.09
C3A G5U A11U | 0.05
C3A C10A C31A | 0.03
C3A C18U C23A G44A | 0.53
C3A C10A C13A | 0.04
C3A G5A A6U A12G | 0.15
C3A G17U G22C U32C C37A A41U | 0.11
C3A G5C G7U A14G U20A | 0.55
C3A C23G U28C A39G | 0.04
C3A G5C A12G C18A A24U U34C G40A C42A | 0.13
C3A G19A C37U U38A | 0.32
C3A C10A U32A G40A | 0.04
C3A G22A A26U G36C U38C | 0.38
C3A A25U U28G | 0.19
C3A G7U G33U U34G C46U | 0.29
C3A C8A A11U C15G U34A C45G | 0.01

Variant | self-cleavage
C3A C8G C13A G40C | 0.02
C3A C31G C45A | 0.05
C3A C15A G30A | 0.15
C3A G7C U43A | 0.06
C3A C18G C23U | 0.6
C3A C37A C45A | 0.14
C3A G17U U28G U34A | 0.25
C3A G19C A39U | 0.04
C3A C8U A26C G29U G35U G44A | 0.2
C3A C8A C10G | 0.01
C3A C15A A25U | 0.11
C3A G7C C31G | 0.05
C3A G27U C31G A39G | 0.06
C3A G19C U34C A39G | 0.24
C3A C13U C15U G35A U43A | 0.12
C3A G19C A24C G40C | 0.08
C3A G7A A12C A14C G44U | 0.06
C3A C8A U9C | 0.15
C3A G5U A12C G17U C23A C31A G44A | 0.02
C3A C10U C23U U34A | 0.12
C3A C13A A14C | 0.04

Variant | self-cleavage
C3A C13A C18U C31U G44C | 0.07
C3A C15U A16G G17U A25C | 0.13
C3A G17U A25G G27U | 0.09
C3A G5C U28A C31G | 0.13
C3A G5A C18G G21A G44U | 0.04
C3A C15U G17U G21A G36U | 0.17
C3A C8G G22C A25G U38A | 0.02
C3A G7A C46U | 0.99
C3A G21C G35U C37G | 0.09
C3A C10G A11C C42G | 0.01
C3A G7U C45U C46U | 0.13
C3A G5C C10A G44U | 0.01
C3A G5C U9A C31A A39C | 0
C3A C15G G17U G44A C46U | 0.04
C3A C13A U32A C37A G40C | 0.01
C3A G7U G27A A39G A41C G44C | 0.21
C3A G21U C23U G30U | 0.43
C3A C8U C13U U20A C23U | 0.84
C3A C8A C15U C31A | 0.74
C3A C18G G22C | 0.53
C3A G29C C31G C46A | 0.28
